Data published in publication PMC12820563.
This is one part of the list. The list includes weakly bound sequences.

Target: T1, MBP-FoxP3dN (UniProt Q99JB6)
T1 sequence: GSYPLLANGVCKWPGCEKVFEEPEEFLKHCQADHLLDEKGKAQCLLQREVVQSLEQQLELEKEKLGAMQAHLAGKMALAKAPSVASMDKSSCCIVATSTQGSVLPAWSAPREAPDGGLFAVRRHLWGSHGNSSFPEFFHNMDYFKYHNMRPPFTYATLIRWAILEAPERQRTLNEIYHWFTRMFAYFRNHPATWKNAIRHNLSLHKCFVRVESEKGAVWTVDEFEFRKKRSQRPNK
Assay: PD-seq (MBP pull-down with sequencing)
Details: 20 mM Tris-HCl pH 7.5, 100 mM NaCl, 1.5 mM MgCl2, 0.4 uM protein, 0.1 uM dsDNA library, 30 min, room temperature, amylose pull-down; high values mean tight binding; double strand, one strand shown

Question: “GATGATTGTTCTCCCAGCTGATGAATTAACGTTGTCGAGTAAACAAATTTTCCTAATCTTTCTGTTCAAGCGCCATCTAC” was tested. Which binding signal (RPM ratio (pull-down/input)) did it give?
Answer: 0.634

Question: Which binding signal (RPM ratio (pull-down/input)) does the source give for “GATGATTGTTCTCCCAGCTGATGAATTCCGGATATCGAGTAAACAAATTTTCCTAATCTTTCTGTTCAAGCGCCATCTAC” here?
Answer: 0.335

Question: Which binding signal (RPM ratio (pull-down/input)) does the source give for “GATGATTGTTCTCCCAGCTGATGAATTAGGGTACTCGAGTAAACAAATTTTCCTAATCTTTCTGTTCAAGCGCCATCTAC” here?
Answer: 0.74

Question: Which binding signal (RPM ratio (pull-down/input)) does the source give for “GATGATTGTTCTCCCAGCTGATGAATTGCGGCCTTCGAGTAAACAAATTTTCCTAATCTTTCTGTTCAAGCGCCATCTAC” here?
Answer: 2.8

Question: “GATGATTGTTCTCCCAGCTGATGAATTGCTGCCTTCGAGTAAACAAATTTTCCTAATCTTTCTGTTCAAGCGCCATCTAC” was tested. Which binding signal (RPM ratio (pull-down/input)) did it give?
Answer: 2.8

Question: With “GATGATTGTTCTCCCAGCTGATGAATTAGACACCTCGAGTAAACAAATTTTCCTAATCTTTCTGTTCAAGCGCCATCTAC” as the sequence, how does the binding signal (RPM ratio (pull-down/input)) read?
Answer: 0.547

Question: For “GATGATTGTTCTCCCAGCTGATGAATTATGACCCTCGAGTAAACAAATTTTCCTAATCTTTCTGTTCAAGCGCCATCTAC”, which binding signal (RPM ratio (pull-down/input)) is on record?
Answer: 0.578

Question: With “GATGATTGTTCTCCCAGCTGATGAATTCTGTGACTCGAGTAAACAAATTTTCCTAATCTTTCTGTTCAAGCGCCATCTAC” as the sequence, how does the binding signal (RPM ratio (pull-down/input)) read?
Answer: 1.37

Question: With “GATGATTGTTCTCCCAGCTGATGAATTCCTTCCCTCGAGTAAACAAATTTTCCTAATCTTTCTGTTCAAGCGCCATCTAC” as the sequence, how does the binding signal (RPM ratio (pull-down/input)) read?
Answer: 0.212

Question: How did the binding signal (RPM ratio (pull-down/input)) turn out when “GATGATTGTTCTCCCAGCTGATGAATTTAACACGTCGAGTAAACAAATTTTCCTAATCTTTCTGTTCAAGCGCCATCTAC” was run?
Answer: 0.655

Question: How did the binding signal (RPM ratio (pull-down/input)) turn out when “GATGATTGTTCTCCCAGCTGATGAATTGGGAACCTCGAGTAAACAAATTTTCCTAATCTTTCTGTTCAAGCGCCATCTAC” was run?
Answer: 0.26

Question: How did the binding signal (RPM ratio (pull-down/input)) turn out when “GATGATTGTTCTCCCAGCTGATGAATTATGAGTCTCGAGTAAACAAATTTTCCTAATCTTTCTGTTCAAGCGCCATCTAC” was run?
Answer: 2.02

Question: “GATGATTGTTCTCCCAGCTGATGAATTTAAGACGTCGAGTAAACAAATTTTCCTAATCTTTCTGTTCAAGCGCCATCTAC” was tested. Which binding signal (RPM ratio (pull-down/input)) did it give?
Answer: 0.273

Question: Which binding signal (RPM ratio (pull-down/input)) does the source give for “GATGATTGTTCTCCCAGCTGATGAATTACTACCATCGAGTAAACAAATTTTCCTAATCTTTCTGTTCAAGCGCCATCTAC” here?
Answer: 0.537

Question: “GATGATTGTTCTCCCAGCTGATGAATTCGCCAACTCGAGTAAACAAATTTTCCTAATCTTTCTGTTCAAGCGCCATCTAC” was tested. Which binding signal (RPM ratio (pull-down/input)) did it give?
Answer: 0.292

Question: Which binding signal (RPM ratio (pull-down/input)) does the source give for “GATGATTGTTCTCCCAGCTGATGAATTTTCGCGATCGAGTAAACAAATTTTCCTAATCTTTCTGTTCAAGCGCCATCTAC” here?
Answer: 0.483

Question: How did the binding signal (RPM ratio (pull-down/input)) turn out when “GATGATTGTTCTCCCAGCTGATGAATTGCGGTTGTCGAGTAAACAAATTTTCCTAATCTTTCTGTTCAAGCGCCATCTAC” was run?
Answer: 1.84

Question: Which binding signal (RPM ratio (pull-down/input)) does the source give for “GATGATTGTTCTCCCAGCTGATGAATTAACAACTTCGAGTAAACAAATTTTCCTAATCTTTCTGTTCAAGCGCCATCTAC” here?
Answer: 0.722

Question: With “GATGATTGTTCTCCCAGCTGATGAATTTTGTATCTCGAGTAAACAAATTTTCCTAATCTTTCTGTTCAAGCGCCATCTAC” as the sequence, how does the binding signal (RPM ratio (pull-down/input)) read?
Answer: 5.89

Question: “GATGATTGTTCTCCCAGCTGATGAATTCGCATTCTCGAGTAAACAAATTTTCCTAATCTTTCTGTTCAAGCGCCATCTAC” was tested. Which binding signal (RPM ratio (pull-down/input)) did it give?
Answer: 4.89

Question: How did the binding signal (RPM ratio (pull-down/input)) turn out when “GATGATTGTTCTCCCAGCTGATGAATTATTGATTTCGAGTAAACAAATTTTCCTAATCTTTCTGTTCAAGCGCCATCTAC” was run?
Answer: 1.68

Question: With “GATGATTGTTCTCCCAGCTGATGAATTGCCCTTATCGAGTAAACAAATTTTCCTAATCTTTCTGTTCAAGCGCCATCTAC” as the sequence, how does the binding signal (RPM ratio (pull-down/input)) read?
Answer: 0.667

Question: How did the binding signal (RPM ratio (pull-down/input)) turn out when “GATGATTGTTCTCCCAGCTGATGAATTTTACATATCGAGTAAACAAATTTTCCTAATCTTTCTGTTCAAGCGCCATCTAC” was run?
Answer: 0.455

Question: “GATGATTGTTCTCCCAGCTGATGAATTCAACTTTTCGAGTAAACAAATTTTCCTAATCTTTCTGTTCAAGCGCCATCTAC” was tested. Which binding signal (RPM ratio (pull-down/input)) did it give?
Answer: 0.341

Question: With “GATGATTGTTCTCCCAGCTGATGAATTAGGGCTCTCGAGTAAACAAATTTTCCTAATCTTTCTGTTCAAGCGCCATCTAC” as the sequence, how does the binding signal (RPM ratio (pull-down/input)) read?
Answer: 0.379

Question: How did the binding signal (RPM ratio (pull-down/input)) turn out when “GATGATTGTTCTCCCAGCTGATGAATTTTTGTAATCGAGTAAACAAATTTTCCTAATCTTTCTGTTCAAGCGCCATCTAC” was run?
Answer: 1.32

Question: “GATGATTGTTCTCCCAGCTGATGAATTCCCTTTTTCGAGTAAACAAATTTTCCTAATCTTTCTGTTCAAGCGCCATCTAC” was tested. Which binding signal (RPM ratio (pull-down/input)) did it give?
Answer: 0.238

Question: For “GATGATTGTTCTCCCAGCTGATGAATTTCCTTATTCGAGTAAACAAATTTTCCTAATCTTTCTGTTCAAGCGCCATCTAC”, which binding signal (RPM ratio (pull-down/input)) is on record?
Answer: 0.329

Question: Which binding signal (RPM ratio (pull-down/input)) does the source give for “GATGATTGTTCTCCCAGCTGATGAATTCTTAACATCGAGTAAACAAATTTTCCTAATCTTTCTGTTCAAGCGCCATCTAC” here?
Answer: 0.41

Question: For “GATGATTGTTCTCCCAGCTGATGAATTGCTGTCATCGAGTAAACAAATTTTCCTAATCTTTCTGTTCAAGCGCCATCTAC”, which binding signal (RPM ratio (pull-down/input)) is on record?
Answer: 1.17

Question: “GATGATTGTTCTCCCAGCTGATGAATTTCACGACTCGAGTAAACAAATTTTCCTAATCTTTCTGTTCAAGCGCCATCTAC” was tested. Which binding signal (RPM ratio (pull-down/input)) did it give?
Answer: 0.3

Question: With “GATGATTGTTCTCCCAGCTGATGAATTACTCTATTCGAGTAAACAAATTTTCCTAATCTTTCTGTTCAAGCGCCATCTAC” as the sequence, how does the binding signal (RPM ratio (pull-down/input)) read?
Answer: 0.342
